# Experimental data: PubChem BioAssay (Tox21)
# Where “and” joins values, the source holds several entries; their conditions need not be identical. Equal entries are not always repeated. The shares of active, inactive and inconclusive entries below differ from those in the screen. Potencies beside an inconclusive call are fits to weak or partial responses and may not hold up. Calls of active or inactive are those of the source. Calls come from the whole dose curve; as a rule, active = well fitted activation curve with a large enough effect in the repeat runs; inconclusive = weak or mixed curves; inactive = flat fitted curve, though single readings scatter. Bridge positions count the residues as written; N and C are the ends. Square brackets hold non-standard residues; d marks the D form. Peptide text beside a SMILES is read from it. pGlu = O=C1CC[C@@H](C(=O)O)N1; Orn = NCCC[C@H](N)C(=O)O; Thz = O=C(O)[C@@H]1CSCN1; Mpa = O=C(O)CCS
# Molecular target: Androgen receptor (Homo sapiens) (UniProt P10275)
# Assay: qHTS assay to identify small molecule agonists of the androgen receptor (AR) signaling pathway using the MDA cell line (AID 743040; note: nearly all actives have a fitted effect of over 20% in size)
# Conditions: MDA-kb2 AR-luc cells, MMTV luciferase, 16 h; activity change: at 70.3 µM (top of the series), active compounds read high unless noted
# Text: National Center for Advancing Translational Sciences [NCATS]
# NIH Chemical Genomics Center [NCGC]
# U.S. Environmental Protection Agency [EPA]
# National Institutes of Environmental Health Sciences [NIEHS]
# National Toxicology Program [NTP]
# U.S. Food and Drug Administration [FDA]
# Androgen receptor (AR), a nuclear hormone receptor, plays a critical role in AR-dependent prostate cancer and other androgen related diseases. Endocrine disrupting chemicals (EDCs) and their interactions with steroid hormone receptors like AR may cause disruption of normal endocrine function as well as interfere with metabolic homeostasis, reproduction, developmental and behavioral functions. To identify the compounds that activate AR signaling, MDA-kb2 AR-luc cell line (from ATCC, deposited by Wilson et al.) was used to screen the Tox21 10K compound library. MDA-kb2 AR-luc cell line is human breast carcinoma cell line that was stably transfected with a luciferase reporter gene under control of the MMTV promoter containing response elements for both androgen receptor (AR) and glucocorticoid receptor (GR).
# Tox21 Assay Protocol Summary:
# MDA-kb2 AR-luc cells were dispensed at 3,000 cells/5 uL/well of culture medium into white wall/solid-bottom 1536-well plates using a Multidrop Combi (ThermoFisher Scientific, Waltham, MA) dispenser. After the assay plates were incubated at 37C and 0% CO2 for 5 h, 23 nL of compounds dissolved in DMSO, positive controls or DMSO only was transferred to the assay plate by a Pintool station (Kalypsys, San Diego, CA). The plates were incubated at 37C and 0% CO2 for 16 h. Then 4 uL of ONE-Glo reagent (Promega, Madison, WI) was added to each plate using a Bioraptr Flying Reagent Dispenser (FRD) workstation (Beckman Coulter, Indianapolis, IN, USA) and luminescence was quantified on a ViewLux (PerkinElmer, Shelton, CT) plate reader after 30 min incubation at room temperature.
# % is set by controls: 0 for no effect and ±100 for the full control effect; potency is the fitted concentration of half-maximal effect; tags give direction and shape of the fitted curve.
# UniProt P10275, sequence (P10275 whole entry, looked up): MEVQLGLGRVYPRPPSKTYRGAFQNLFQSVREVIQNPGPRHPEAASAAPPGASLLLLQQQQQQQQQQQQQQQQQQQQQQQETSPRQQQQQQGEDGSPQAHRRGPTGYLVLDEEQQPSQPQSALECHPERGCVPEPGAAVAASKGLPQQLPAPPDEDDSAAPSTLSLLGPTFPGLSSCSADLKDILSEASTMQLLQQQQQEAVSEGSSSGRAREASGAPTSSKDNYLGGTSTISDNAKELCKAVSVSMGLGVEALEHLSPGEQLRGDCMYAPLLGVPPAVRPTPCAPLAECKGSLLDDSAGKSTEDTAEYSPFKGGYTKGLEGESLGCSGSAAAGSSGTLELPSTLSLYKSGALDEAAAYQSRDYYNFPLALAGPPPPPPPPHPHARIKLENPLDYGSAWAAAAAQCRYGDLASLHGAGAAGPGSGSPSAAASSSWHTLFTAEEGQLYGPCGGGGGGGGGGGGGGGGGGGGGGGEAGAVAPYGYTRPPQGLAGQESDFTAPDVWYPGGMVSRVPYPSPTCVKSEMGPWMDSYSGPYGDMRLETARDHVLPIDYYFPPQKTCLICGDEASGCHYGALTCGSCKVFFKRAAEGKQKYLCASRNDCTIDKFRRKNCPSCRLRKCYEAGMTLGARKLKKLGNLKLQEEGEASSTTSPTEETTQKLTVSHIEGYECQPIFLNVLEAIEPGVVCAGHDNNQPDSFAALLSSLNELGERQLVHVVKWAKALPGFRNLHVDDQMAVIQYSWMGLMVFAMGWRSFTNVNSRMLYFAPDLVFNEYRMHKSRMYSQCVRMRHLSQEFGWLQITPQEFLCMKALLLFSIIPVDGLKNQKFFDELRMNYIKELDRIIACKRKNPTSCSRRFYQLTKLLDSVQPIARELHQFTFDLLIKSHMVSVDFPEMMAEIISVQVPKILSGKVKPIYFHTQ
SMILES,Potency,activity change
CC(CN1CC(=O)NC(=O)C1)N1CC(=O)NC(=O)C1 (stereo not drawn),"inconclusive: 47.3 µM [activator, partial curve]",
C[C@]12CCC(=O)C=C1CC[C@@H]1[C@@H]2[C@@H](O)C[C@@]2(C)[C@H]1CC[C@]2(O)C(=O)CO,active: 119 nM and active: 69.3 nM,
NC[C@@H]1CC[C@@H](N)[C@@H](O[C@H]2[C@H](O)[C@@H](O[C@H]3O[C@H](CO)[C@@H](O)[C@H](N)[C@H]3O)[C@H](N)C[C@@H]2N)O1,active: 29.8 µM,
O=C(c1ccccc1)c1cccc(O)c1,"inconclusive: 8.77 µM [activator, partial curve]",
COc1ccc(-c2noc(CC(=O)O)c2-c2ccc(OC)cc2)cc1,,inconclusive: 16.2% [phenotype inactive]
CC(=O)CC(C)(C)O,,"inconclusive: -0.727% [phenotype inactive] [at 95 µM, active compounds read high]"
O=C1c2ccccc2C(=O)C1c1ccc(Cl)cc1,,inactive: 1.49%
O=C1CC[C@@H](C(=O)N2CSC[C@H]2C(=O)O)N1 ([pGlu]-[Thz]-OH),,inconclusive: 10.3% [phenotype inactive]
CCCC(=O)O[C@]1(C(=O)CCl)[C@@H](C)C[C@H]2[C@@H]3CCC4=CC(=O)C=C[C@]4(C)[C@@]3(F)C(=O)C[C@@]21C,active: 0.006 µM,
CC[C@H]1OC(=O)C[C@@H](O)[C@H](C)[C@@H](O[C@@H]2O[C@H](C)[C@@H](O)[C@H](N(C)C)[C@H]2O)[C@@H](CCN2C[C@H](C)C[C@H](C)C2)C[C@@H](C)C(=O)/C=C/C(C)=C/[C@@H]1CO[C@@H]1O[C@H](C)[C@@H](O)[C@@H](OC)[C@H]1OC,"inconclusive: 29.8 µM [activator, partial curve, poor fit]",
Nc1c(Br)cc(Br)cc1CNC1CCC(O)CC1 (stereo not drawn),active: 1.88 µM,
Cc1cc(C)c(NC(=O)C[C@H](CC(=O)O)c2cccc3ccccc23)c(C(=O)N2CCC3(CCCC3)CC2)c1,,inactive: 0.206%
C[C@@H]1C[C@H]2[C@@H]3CCC4=CC(=O)C=C[C@]4(C)[C@@]3(F)[C@@H](O)C[C@]2(C)[C@@]1(O)C(=O)COC(=O)c1cccc(S(=O)(=O)O)c1,active: 0.0841 µM,
CCOc1ccc(C[C@H]2NC(=O)CCSSC[C@@H](C(=O)N3CCC[C@H]3C(=O)N[C@@H](CCCN)C(=O)NCC(N)=O)NC(=O)[C@H](CC(N)=O)NC(=O)[C@H]([C@@H](C)O)NC(=O)[C@H]([C@@H](C)CC)NC2=O)cc1 ([Mpa][dY](Et)ITNCP[Orn]G-NH2; disulfide 1-6),,inactive: 0.308%
CCOC(=O)O[C@]1(C(=O)COC(=O)CC)CC[C@H]2[C@@H]3CCC4=CC(=O)C=C[C@]4(C)[C@H]3[C@@H](O)C[C@@]21C,active: 0.0507 µM,
Cc1cc(O)c2c(c1)O[C@@]1(C)CC[C@H]3C(C)(C)CCCC34CO[C@@H]2[C@H]41 (stereo partly drawn),,inactive: -9.94%
CC(=O)OCC(=O)[C@@]1(O)[C@H](C)C[C@H]2[C@@H]3C[C@H](F)C4=CC(=O)C=C[C@]4(C)[C@H]3[C@@H](O)C[C@@]21C,active: 0.0298 µM,
CC1(C)S[C@@H]2[C@H](NC(=O)[C@H](NC(=O)N3CCN(S(C)(=O)=O)C3=O)c3ccccc3)C(=O)N2[C@H]1C(=O)O,active: 29.8 µM,
